{
  "source": "PubChem BioAssay AID720708",
  "about": "(National Center for Advancing Translational Sciences (NCATS), 2013)",
  "note": "About 660 (0.18%) of roughly 360,000 compounds were called active. The inconclusive results got no clear call from the source; some entries with a clear call stand among them for comparison. Calls follow the shape of the dose curve; as a rule, active = well fitted inhibition curve with a large enough effect; inconclusive = small, poorly fitted or top-dose-only effect; inactive = no such curve, though single readings can be large or run the other way. Potencies of inconclusive entries are left out as doubtful fits.",
  "data": [
    {"target": "Rap guanine nucleotide exchange factor 4 (Homo sapiens) (UniProt Q8WZA2)", "sequence (Q8WZA2 whole entry, looked up)": "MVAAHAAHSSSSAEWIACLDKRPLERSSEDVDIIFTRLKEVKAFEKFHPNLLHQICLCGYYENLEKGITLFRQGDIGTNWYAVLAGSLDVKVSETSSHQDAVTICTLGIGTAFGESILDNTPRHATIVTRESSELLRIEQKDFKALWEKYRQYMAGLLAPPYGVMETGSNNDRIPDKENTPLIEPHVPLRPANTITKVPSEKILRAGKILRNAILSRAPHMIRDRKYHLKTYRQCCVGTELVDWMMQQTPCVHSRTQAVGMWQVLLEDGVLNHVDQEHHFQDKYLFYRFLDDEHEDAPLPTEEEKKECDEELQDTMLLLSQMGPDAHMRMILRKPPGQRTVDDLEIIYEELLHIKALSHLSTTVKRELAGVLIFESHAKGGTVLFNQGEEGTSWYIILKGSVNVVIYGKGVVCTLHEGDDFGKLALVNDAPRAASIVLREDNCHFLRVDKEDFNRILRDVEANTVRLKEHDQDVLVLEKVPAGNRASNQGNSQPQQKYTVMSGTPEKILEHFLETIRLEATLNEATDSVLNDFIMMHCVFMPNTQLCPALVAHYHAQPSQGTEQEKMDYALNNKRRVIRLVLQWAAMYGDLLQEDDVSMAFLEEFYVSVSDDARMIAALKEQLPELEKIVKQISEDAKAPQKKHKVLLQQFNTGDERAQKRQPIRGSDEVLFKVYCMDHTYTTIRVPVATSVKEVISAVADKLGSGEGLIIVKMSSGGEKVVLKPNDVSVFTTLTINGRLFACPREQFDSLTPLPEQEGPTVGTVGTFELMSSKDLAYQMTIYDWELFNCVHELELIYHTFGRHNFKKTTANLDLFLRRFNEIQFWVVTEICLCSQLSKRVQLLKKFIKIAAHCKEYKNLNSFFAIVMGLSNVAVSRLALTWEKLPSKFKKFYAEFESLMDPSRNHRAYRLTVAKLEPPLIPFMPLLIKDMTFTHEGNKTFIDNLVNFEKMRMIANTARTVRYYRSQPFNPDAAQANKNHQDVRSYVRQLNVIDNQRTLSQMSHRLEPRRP", "test": "qHTS for Antagonist of cAMP-regulated guanine nucleotide exchange factor 2 (EPAC2): primary screen; also: nearly all actives have a fitted effect of over 45% in size; also: potency is read from the fitted curve at half-maximal effect; tags tell the direction and shape of the fitted curve; as to activity, negative = inhibition: % is scaled to controls: 0 for no effect and ±100 for the full control effect", "conditions": "EPAC2 GEF exchange of Rap1B-BODIPY-GDP, fluorescence; activity, negative = inhibition: at 114 µM (top of the series) unless noted", "values": [
      {"compound": "Cc1cc(N2C(=O)C(O)=C(C(=O)c3ccco3)C2c2ccc([N+](=O)[O-])cc2)no1", "note": "(stereo unspecified)", "Potency": "inactive"},
      {"compound": "COC(=O)C1=CN(c2cccc(Cl)c2)C=C(C(=O)OC)C1c1cccc(OC)c1", "Potency": "inconclusive [inhibitor, full curve]"},
      {"compound": "CSc1nccc(-c2c(-c3ccc(Cl)cc3)noc2C)n1", "Potency": "inconclusive [inhibitor, full curve]"},
      {"compound": "CC1(C(=O)NS(=O)(=O)c2ccc(F)cc2F)CCN1C(=O)C1(c2ccc(Cl)cc2)CC1", "note": "(stereo unspecified)", "Potency": "inconclusive [inhibitor, partial curve]"},
      {"compound": "COc1ccccc1C(NC(C)=O)c1c(O)ccc2ccc(O)cc12", "note": "(stereo unspecified)", "Potency": "inconclusive [inhibitor, full curve, poor fit]"},
      {"compound": "COc1ccc(-n2nc3cc(C)c(N)c(Br)c3n2)cc1", "Potency": "inactive"},
      {"compound": "Brc1cc2c(cc1CSc1ncccn1)OCO2", "Potency": "active: 35.5 µM"},
      {"compound": "O=C(CCc1nnc(CCCc2ccccc2)o1)NCCc1ccccc1", "Potency": "inactive"},
      {"compound": "COc1ccccc1Oc1ccnc2cc(Cl)ccc12", "Potency": "active: 39.8 µM"},
      {"compound": "CC(C)(C)c1cccc(Cn2nnc3ccccc32)c1O", "Potency": "inconclusive [inhibitor, partial curve]"},
      {"compound": "COc1cc(SC)ccc1C(=O)N1CCN(c2ccccc2)CC1", "Potency": "inconclusive [inhibitor, single point]"},
      {"compound": "C[C@@H]1CC=C[C@H]2[C@H]1C(=O)N(Cc1ccccc1)[C@H]2c1ccc(C(F)(F)F)cc1", "Potency": "inconclusive [inhibitor, partial curve]"},
      {"compound": "CCc1cc(-c2n[nH]c(C)c2-c2ccccc2Cl)c(O)cc1OC", "Potency": "inconclusive [inhibitor, partial curve]"},
      {"compound": "S=C(NCCCN1CCOCC1)Nc1cccc(-c2nnc3n2CCCCC3)c1", "Potency": "inconclusive [inhibitor, single point]"},
      {"compound": "Cc1ccc2nc(C(C)(C)C)c(Cc3cccc(Cl)c3)n2c1", "Potency": "inactive"},
      {"compound": "COc1ccc(NC(=O)c2ccc(-c3ccc(-c4noc(C)n4)cc3C)cc2)cc1N1CCN(C)CC1", "activity, negative = inhibition": "inconclusive: -9.69% [inhibitor]"},
      {"compound": "CC1(C(=O)Nc2ccc(Cl)cc2)Cc2c(-c3cccc(C(N)=O)c3)ccnc2O1", "note": "(stereo unspecified)", "Potency": "inconclusive [inhibitor, single point]"},
      {"compound": "CCOC(=O)N1CCN(C(=O)c2ccc(OC(C)=O)cc2)CC1", "Potency": "inconclusive [inhibitor, single point]"},
      {"compound": "CCCCN(C(=O)c1ccc2c(c1)OCO2)c1ccccc1", "Potency": "inconclusive [inhibitor, partial curve]"},
      {"compound": "CCCCN1C(=O)c2ccc(C(=O)Nc3ccc(C)c(S(=O)(=O)N(C)C)c3)cc2C1=O", "Potency": "inactive"},
      {"compound": "CCc1ccc(CN(C)C(=O)c2cc(COc3cccc4cnccc34)on2)cc1", "Potency": "inconclusive [inhibitor, partial curve]"},
      {"compound": "CC(C)(C)c1ccc(CC(=O)N2CCC2(C)C(=O)NCCC#N)cc1", "note": "(stereo unspecified)", "Potency": "inactive"},
      {"compound": "CCN1C(=O)[C@H]2[C@@H](c3ccc(-c4ccc(OC)cc4)cc3)N[C@@](Cc3ccccc3)(C(=O)OC)[C@H]2C1=O", "Potency": "inconclusive [inhibitor, single point]"},
      {"compound": "CCC(Oc1ccccc1)C(=O)Nc1ccccc1N1CCCC1", "note": "(stereo unspecified)", "Potency": "active: 50.1 µM"},
      {"compound": "CC(=O)Nc1ccc(S(=O)(=O)N2CCN(c3cc(C)nc4ncnn34)CC2)cc1", "Potency": "inactive"},
      {"compound": "NS(=O)(=O)c1cccc(NS(=O)(=O)c2ccc(/C=C/C(=O)OCC(=O)c3ccc(Br)cc3)cc2)c1", "Potency": "inconclusive [inhibitor, full curve, poor fit]"},
      {"compound": "O=C(O)/C=C/C(=O)Nc1cccc(C(F)(F)F)c1", "Potency": "inconclusive [inhibitor, single point]"},
      {"compound": "O=c1nc2ccccc2c2n1CC(CN1CCN(c3ccccc3F)CC1)N2", "note": "(stereo unspecified)", "Potency": "inconclusive [inhibitor, single point]"},
      {"compound": "CC(C)(C)/C(O)=C/c1nc2ccccc2[nH]c1=O", "Potency": "inactive"},
      {"compound": "COc1ccccc1Cc1c(-c2ccco2)nc2c(C)cc(Br)cn12", "Potency": "inconclusive [inhibitor, single point]"},
      {"compound": "O=C(C[C@H]1C(=O)N(C2CCCCC2)C[C@@H]1Cc1ccccc1)Nc1ccccc1", "Potency": "inconclusive [inhibitor, single point]"},
      {"compound": "Cc1ccc(C)c(Oc2coc3cc(O)ccc3c2=O)c1", "Potency": "inconclusive [inhibitor, partial curve]"},
      {"compound": "C=C1CC2C(=O)N(Cc3cc(OC)ccc3OC)C(C(=O)OCC)(C(=O)OCC)C1N2C(=O)OC(C)(C)C", "note": "(stereo unspecified)", "Potency": "inconclusive [inhibitor, single point]"},
      {"compound": "O=C(NC(=S)Nc1cccc(Cl)c1N1CCCCC1)c1ccc2c(c1)OCCO2", "Potency": "inactive"},
      {"compound": "COC(=O)C1=C/C=C\\CN(C(c2ccccc2)c2ccccc2)/C=C\\1C(=O)OC", "Potency": "inconclusive [inhibitor, full curve]"},
      {"compound": "CC(C)CC1C(=O)N(Cc2cn(CCC3OCCO3)nn2)CCS(=O)(=O)N1Cc1ccc(-c2ccncc2)cc1", "note": "(stereo unspecified)", "Potency": "inconclusive [inhibitor, partial curve]"},
      {"compound": "CC(=O)C1=C(O)C(=O)N(c2ccc(Br)cn2)C1c1cccc([N+](=O)[O-])c1", "note": "(stereo unspecified)", "Potency": "inconclusive [inhibitor, partial curve]"},
      {"compound": "CCc1ccc2oc(-c3ccc(OC)cc3)cc(=Nc3cccc(C(=O)O)c3)c2c1", "Potency": "inconclusive [inhibitor, partial curve]"},
      {"compound": "Brc1ccccc1OCCCCn1cnc2ccccc21", "Potency": "inconclusive [inhibitor, partial curve]"},
      {"compound": "O=C(CCSC1=NCCCN1)c1ccc(F)cc1", "Potency": "inactive"},
      {"compound": "CC(C)CNC(=S)NNC(=O)c1ccco1", "Potency": "inactive"},
      {"compound": "COc1ccc(C(NC(C)=O)c2ccc3cccnc3c2O)c(OC)c1", "note": "(stereo unspecified)", "Potency": "inconclusive [inhibitor, partial curve]"},
      {"compound": "Cc1ccc(NS(=O)(=O)c2ccc(Cl)s2)cc1S(=O)(=O)N(C)C", "Potency": "inconclusive [inhibitor, partial curve]"},
      {"compound": "Cc1cccc(/C=N/n2c(COc3ccccc3)n[nH]c2=S)c1", "Potency": "inactive"},
      {"compound": "CCOc1cc2c(cc1/C=C/c1noc(C)c1[N+](=O)[O-])OC(C)C2", "note": "(stereo unspecified)", "Potency": "inconclusive [inhibitor, partial curve]"},
      {"compound": "COc1cc(OC)cc(-c2nc3ccccc3c(=O)n2OC(=O)c2ccc(Br)cc2)c1", "Potency": "inconclusive [inhibitor, partial curve]"},
      {"compound": "O=C1CCC[C@@H]2C=C[C@H](c3ccc(Br)cc3)[C@H]3CCN1[C@@H]32", "Potency": "inconclusive [inhibitor, partial curve]"},
      {"compound": "CCCc1ccc(OCc2ccc(C(=O)N3CCSCC3)o2)cc1", "Potency": "inconclusive [inhibitor, partial curve]"},
      {"compound": "COc1ccc(N2C(=O)C(F)(F)C2c2ccc(C)cc2)cc1OC", "note": "(stereo unspecified)", "Potency": "inconclusive [inhibitor, partial curve]"},
      {"compound": "CCC(C)Sc1ccc([C@@H]2[C@H]3C(=O)N(CC)C(=O)[C@H]3[C@]3(C(=O)OC)CCCN23)cc1OC", "note": "(stereo partly specified)", "Potency": "inactive"},
      {"compound": "O=C(COC(=O)C1(c2ccc(F)cc2)CCCC1)NCc1ccc2c(c1)OCO2", "Potency": "inconclusive [inhibitor, full curve, poor fit]"},
      {"compound": "COc1cccc(N2CCN(C(=O)c3cccc(NC(=O)C4=C(C)OCCS4)c3)CC2)c1", "Potency": "inactive"},
      {"compound": "O=C(O)c1ccc(Cn2cc(/C=C\\[N+](=O)[O-])c3ccccc32)o1", "Potency": "inconclusive [inhibitor, partial curve]"},
      {"compound": "COc1cccc(/C=N/NC(=O)c2ccncc2)c1OC(=O)c1ccc(Br)cc1", "Potency": "inconclusive [inhibitor, full curve, poor fit]"},
      {"compound": "CCOC(=O)c1c(CN2CCN(CC#N)CC2)n(C)c2cc(Br)c(OC)cc12", "Potency": "inconclusive [inhibitor, partial curve]"},
      {"compound": "CC(C)CC1C(=O)N(Cc2cn(CCC3OCCCO3)nn2)CCS(=O)(=O)N1Cc1ccc(-c2ccccc2)cc1", "note": "(stereo unspecified)", "Potency": "inconclusive [inhibitor, partial curve]"},
      {"compound": "O=[N+]([O-])c1ccc(/C=N/Nc2ncc(Br)cn2)cc1", "Potency": "inactive"},
      {"compound": "CC(C)c1cc[n+](-c2nc([O-])sc2C=O)cc1", "Potency": "inactive"},
      {"compound": "Cc1onc(-c2c(F)cccc2Cl)c1C(=O)Oc1ccccc1", "Potency": "inconclusive [inhibitor, partial curve, poor fit]"},
      {"compound": "COc1ccc(C)cc1N(C(=O)Cn1nnc(-c2ccc(C)o2)n1)C(C(=O)NC1CCCC1)c1ccncc1", "note": "(stereo unspecified)", "Potency": "inconclusive [inhibitor, single point]"},
      {"compound": "COC(=O)c1sccc1NC(=O)c1c(Cl)cccc1Cl", "Potency": "inconclusive [inhibitor, partial curve]"},
      {"compound": "COc1cccc(-c2cc(NC=O)c3ncc(-c4cccc(C(=O)N(C)C)c4)n3c2)c1", "Potency": "inconclusive [inhibitor, full curve]"},
      {"compound": "NS(=O)(=O)c1ccc(NC(=O)COC(=O)COc2ccc(Cl)cc2)cc1", "Potency": "inconclusive [inhibitor, single point]"},
      {"compound": "c1ccc(-c2onc(-c3ccco3)c2-c2ccc3c(c2)OCO3)cc1", "Potency": "inconclusive [inhibitor, full curve, poor fit]"},
      {"compound": "O=C(Nc1nc(-c2ccccn2)cs1)C1CC1", "Potency": "inconclusive [inhibitor, single point]"},
      {"compound": "Cc1noc(C)c1NC(=O)N(C)C[C@H]1Oc2ccc(NC(=O)C3CCCCC3)cc2C(=O)N([C@H](C)CO)C[C@@H]1C", "Potency": "inactive"}
    ]}
  ]
}
